The full ranking holds about 110,000 compounds; the median of “z-score” is about -0.1, and the highest 2% start at about 2. The list shows a part of the results. Calls of active or inactive are those of the source.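 Rule for the calls: active = z-score in the third read window above 3 or below -3; inactive = the rest.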
Biological target: Metabotropic glutamate receptor 8 (Rattus norvegicus) (UniProt P70579)
Assay: mGluR8 Gi/Go-coupled signaling modulation – cell-based, rat, thallium flux, HTS, primary screen (AID 488969)
Conditions: HEK293 rat mGluR8, GIRK (G protein-gated inwardly rectifying potassium channel) thallium flux, FluoZin2; at 10 µM; stronger effect = higher value; submaximal glutamate (EC20) added with thallium

UniProt P70579, sequence (P70579 whole entry, looked up): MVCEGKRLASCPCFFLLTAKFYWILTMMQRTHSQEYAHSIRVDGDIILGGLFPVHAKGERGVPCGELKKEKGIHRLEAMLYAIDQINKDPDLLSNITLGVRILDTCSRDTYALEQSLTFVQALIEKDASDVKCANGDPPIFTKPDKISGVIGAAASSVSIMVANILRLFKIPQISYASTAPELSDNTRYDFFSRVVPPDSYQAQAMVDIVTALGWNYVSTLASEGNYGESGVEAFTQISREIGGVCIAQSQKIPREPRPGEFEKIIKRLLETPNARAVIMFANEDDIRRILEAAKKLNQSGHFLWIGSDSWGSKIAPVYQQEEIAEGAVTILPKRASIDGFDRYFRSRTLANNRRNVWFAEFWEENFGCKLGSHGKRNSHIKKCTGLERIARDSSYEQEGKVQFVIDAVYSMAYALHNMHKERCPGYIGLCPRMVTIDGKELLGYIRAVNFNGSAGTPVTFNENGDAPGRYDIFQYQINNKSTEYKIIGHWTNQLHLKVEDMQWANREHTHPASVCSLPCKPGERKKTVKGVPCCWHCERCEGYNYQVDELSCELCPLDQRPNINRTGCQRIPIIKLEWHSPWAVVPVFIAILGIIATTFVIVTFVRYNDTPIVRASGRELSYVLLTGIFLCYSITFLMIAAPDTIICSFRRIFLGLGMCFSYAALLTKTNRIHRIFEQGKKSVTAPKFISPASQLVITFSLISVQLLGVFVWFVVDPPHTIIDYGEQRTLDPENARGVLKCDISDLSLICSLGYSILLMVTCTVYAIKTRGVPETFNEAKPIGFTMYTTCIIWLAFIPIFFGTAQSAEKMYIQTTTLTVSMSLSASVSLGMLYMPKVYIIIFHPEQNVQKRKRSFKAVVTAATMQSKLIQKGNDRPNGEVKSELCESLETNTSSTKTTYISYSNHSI

Structure (SMILES)	z-score
CCOC(=O)c1c(NC(=O)c2cccs2)sc2c1CCN(C(=O)OCC)C2	-0.63
O=C(C(Cc1ccccc1)n1cccc1)N1CCN(Cc2ccccc2)CC1 (stereo unspecified)	-0.876
O=C(COC(=O)c1nc(Cl)ccc1Cl)c1ccc(Cl)s1	0.688
CCc1c(O)nc(SCC(=O)Nc2ccccc2C)[nH]c1=O	-0.0542
Cc1ccc(SCc2[nH]nc3c2C(C(C)C)C(C#N)=C(N)O3)cc1 (stereo unspecified)	0.428
Cn1c(CSc2nc3ccccc3n2C)nc2ccccc21	0.502
CC(C)c1ccccc1NC(=O)c1ccccc1NC(=O)C1CCCCC1	0.916
O=C(NCc1ccccc1)c1c[nH]c2ccc(S(=O)(=O)Nc3ccc4c(c3)OCCO4)cc2c1=O	1.23
COC(=O)c1cc(-c2ccc(OC)c(OC)c2)on1	-0.638
O=C(CSc1nnc(-c2ccco2)n1-c1ccccc1)N1CCc2ccccc21	0.00192
COc1cccc(OC)c1C(=O)NNC(=O)c1cccc(COc2ccc3c(c2)CCC3)c1	-0.245
O=C(CN1CCOCC1)Nc1ccc(Br)cn1	-0.281
Cc1[nH]n(-c2ccc(Cl)cc2)c(=O)c1/C=N/c1nnc(-c2ccccc2)s1	active: 8.81
O=C(Nc1ccc(N2CCN(C(=O)c3ccco3)CC2)c(Cl)c1)c1c(F)c(F)c(F)c(F)c1F	-0.334
Cc1ccc(OCC(=O)Nc2ccc(F)cc2)cc1C	1.18
COc1ccc2nc(SCc3ccccc3C)nc(C)c2c1	-0.26
S=C(NCc1ccccc1)NCC1COc2ccccc2O1 (stereo unspecified)	0.508
O=Cc1ccccc1OCCOc1ccccc1C=O	-0.52
COC(=O)c1cc(-c2c[nH]c3ccccc23)n[nH]1	0.829
S=C(Nc1ccccc1)Nc1cc(Cl)ccc1Oc1ccccc1	active: 3.43
CCCCCCn1c(O)c(/C=C2\C=NN=C2c2ccccc2)sc1=S	-0.163
Cc1ccc(N(CC(=O)Nc2ccccc2-c2ccccc2)S(=O)(=O)c2ccccc2)cc1	0.628

Structure (SMILES)	z-score
COc1ccc(NC(=O)c2ccc(CN3CCN(c4ccccc4)CC3)cc2)cc1OC	0.184
O=C(Nc1ccc(S(=O)(=O)Nc2nccs2)cc1)c1cc(-c2ccccc2Cl)nc2ccccc12	-0.275
CCC(=O)Nc1ccc(NC(=O)c2ccccc2Cl)nc1	-0.236
CC1CC(C)(C)NC(=S)N1CCCC(=O)N1CCN(c2ccc(F)cc2)CC1 (stereo unspecified)	-0.0952
CC1(C)CC(=O)c2cnc(NC(=O)c3ccco3)nc2C1	-0.0387
Cc1ccc(-c2noc(CCC(=O)NCCN3CCc4ccccc4C3)n2)cc1	0.982
COc1ccc(-c2c3c(=O)n(C)c(=O)n(C)c3cn2-c2cc(OC)ccc2OC)cc1	-1.13
CCCn1c(NC(=O)c2cccc(C)c2C)nc2ccccc21	-0.121
O=C(CN1C(=O)c2ccccc2C1=O)N1CCCCC1	-0.079
O=C1CC(c2ccccc2)CC(O)=C1C=NCC1CCCO1 (stereo unspecified)	-0.0504
O=C(O)CC/C(=C\c1cc([N+](=O)[O-])ccc1Cl)c1nc2ccccc2s1	-2.59
O=C(O)COc1ccc(/C=C/c2ccc3cccc([N+](=O)[O-])c3n2)cc1	-0.135
CN(C)CCNC(=O)Nc1ccc(Cl)c(Cl)c1	0.092
CCNc1nc(NCC)n2c(SCC(=O)Nc3ccc(C(F)(F)F)cc3[N+](=O)[O-])nnc2n1	-0.166
CCOc1cccc(-c2nnc(SCC(=O)Nc3cc(OC)cc(OC)c3)n2N)c1	-0.214
O=[N+]([O-])c1c(C(Cl)Cl)nn(-c2ccccc2)c1N1CCCC1	-0.549
CC(C)C(C(=O)Nc1ccc(S(=O)(=O)N2CCOCC2)cc1)N1C(=O)c2ccccc2C1=O (stereo unspecified)	-0.0651
COc1ccc([C@H]2[C@H](C(=O)C(C)(C)C)N3N=Cc4ccccc4C3[C@]23N=C(c2ccccc2)OC3=O)cc1OC (stereo partly specified)	1.03
NS(=O)(=O)c1ccc(NC(=S)NC(=O)c2ccc(-c3ccccc3)cc2)cc1	-0.131
CCOC(=O)c1cc2sccc2n1Cc1ccc(C#N)cc1	-0.149
O=C(NNc1ccccc1)C(=O)N1CCCCC1	-0.0288
CC(c1nnc(SCC(=O)Nc2sccc2C#N)n1-c1ccc(Cl)cc1)N(C)C (stereo unspecified)	0.0165

Structure (SMILES)	z-score
Cc1ccc(-n2c(SCC3CCCCO3)nnc2-c2ccco2)cc1 (stereo unspecified)	-0.598
c1ccc2c(c1)oc1c(NCCN3CCOCC3)ncnc12	0.156
N#CC1=C(SCC(=O)NC2CC2)NC(=O)C(C#N)C12CCCCC2 (stereo unspecified)	-0.343
CCC(C)[C@H](NC(=O)NC1CCN(Cc2ccccc2)CC1)C(=O)OC (stereo partly specified)	0.0464
FC(F)Oc1ccc(/C=N/c2c(-c3ccc(OC(F)F)cc3)nc3n2CCS3)cc1	-0.405
COc1ccccc1C(=O)Nc1cc2cc(Cl)ccc2oc1=O	0.0947
COc1ccc(-c2ccc(/C=C3\C(=O)N(c4ccccc4)N=C3c3ccccc3)o2)c([N+](=O)[O-])c1	-0.0771
Cc1nnc(SCC(=O)Nc2ccc(S(=O)(=O)N3CCCCC3)cc2)s1	-0.0149
CCOC(=O)CSc1nc2cc(C(=O)N3CCCC3)ccc2c(=O)n1Cc1ccccc1	-1.58
O=c1sc(N2CCN(c3ccc(F)cc3)CC2)nc2ccsc12	-0.181
COc1ccc(S(=O)(=O)N2CCOCC2)cc1NC(=O)c1cc2c(s1)CCCC2	-0.554
CCOC(=O)c1cccc(N2C(N)=NC(N)=NC2(C)C)c1	-0.556
CC(C)(C)c1ccc(C(=O)Nc2ccc(N3CCOCC3)cc2)cc1	-0.496
O=C1NC(=Nc2ccccc2)SC1Cc1cccc(Cl)c1Cl (stereo unspecified)	-0.205
COc1ccc(/C=N/Nc2nc3ccccc3[nH]2)cc1OC	-0.35
Cc1ccc(CSc2nnc(-c3cccs3)n2C)cc1	-0.479
CCc1ccc(NCCC(=O)c2ccc(Cl)cc2)cc1	0.0582
O=C(CN1CCN(c2ccc(Cl)cc2)CC1)N1CCCC1	-0.0698
Cc1cc(Cl)ccc1NC(=S)NCCC(c1ccccc1)c1ccccc1	-0.444
CNC(=O)c1sccc1SCc1ccc(Cl)cc1Cl	-0.622
Cc1cccc(NC(=O)CSc2ncnc3c2oc2ccccc23)c1	0.296
COc1cc(NC(=O)c2ccco2)c(OC)cc1NC(=O)c1cc(OC)c(OC)c(OC)c1	-1.26

Structure (SMILES)	z-score
CCOC(=O)c1cnc(-c2ccccc2)nc1Oc1ccc(Cl)c(Cl)c1	0.00851
O=C(C(c1ccccc1)c1ccccc1)N1CCN(Cc2ccco2)CC1	-0.593
COc1ccc(OC)c(N(CC(=O)Nc2cccnc2)S(=O)(=O)c2ccc(C)cc2)c1	0.0478
CCOC(=O)c1cc2c(=O)n3cccc(C)c3nc2n(CC2CCCO2)c1=NC(C)=O (stereo unspecified)	-0.0779
COC(=O)c1c(NC(=O)CN2CCN(c3cccc(Cl)c3)CC2)sc(C)c1C	0.246
CCOC(=O)N1CCN(S(=O)(=O)c2ccc3c(c2)CCN3C(=O)C2CC2)CC1	0.00591
COC(=O)c1[nH]c2c(c1C)C(=O)CC(c1cc(OC)ccc1OC)C2 (stereo unspecified)	-0.553
CCOC(=O)C1CCCN(C(=O)Cc2ccc(Cl)cc2)C1 (stereo unspecified)	0.247
O=C(Nc1nc(-c2ccc(F)c(F)c2)cs1)c1cc([N+](=O)[O-])ccc1N1CCOCC1	-0.258
COC(=O)c1cccc(NS(=O)(=O)c2ccc(NC(C)=O)cc2)c1C	-0.0283
Cc1ccc(CNc2ccc(N3CCOCC3)c(C(=O)O)c2)s1	0.589
Cc1cccc(N=Cc2cc3c(cc2[N+](=O)[O-])OCO3)c1	-0.0653
Cc1nn(Cc2ccccc2Cl)c(C)c1N	-0.104
COc1ccc(-n2c(N)c(C#N)c3ccc([N+](=O)[O-])cc3c2=O)cc1	0.119
COc1ccc(-c2nc(CCNS(=O)(=O)c3ccc4c(c3)OCCO4)cs2)cc1	-0.146
COC(=O)c1ccc(Oc2nc(C)cc(Oc3ccccc3)n2)cc1	-0.75
CCOC(=O)C1CCN(CC(O)COc2ccc(C(C)=O)cc2)CC1 (stereo unspecified)	-0.0456
CC(=O)N(Cc1c(C#N)c2ccccc2n1C)c1ccccc1	-0.168
O=C(CCCN1C(=O)c2ccccc2C1=O)NCCCN1CCOCC1	0.731
Cc1cccc2cc(CN(Cc3cccs3)C(=S)NCC3CCCO3)c(=O)[nH]c12 (stereo unspecified)	-0.229
CCOc1ccc(/C=N/NC(=O)C(C)N(c2ccc(OC)cc2)S(C)(=O)=O)cc1 (stereo unspecified)	-0.0653
Cc1ccc2nc(NC(=O)CN(C)S(=O)(=O)c3cccc4nsnc34)sc2c1	0.0764

Structure (SMILES)	z-score
CCCCCOC(=O)Cn1c(=O)c2c(nc(N3CCOCC3)n2C)n(C)c1=O	0.0775
O=C(Nc1ccccc1C(=O)NCCCn1ccnc1)c1ccc(Cl)cc1Cl	-0.608
Brc1ccc(-c2ccc(/C=N/Nc3nc4ccccc4[nH]3)o2)cc1	0.221
COc1ccc(N/C(C)=C/C(=S)Nc2ccccc2)cc1	0.204
Cc1cc(C)nc(NS(=O)(=O)c2ccc(NC(=O)c3cccc(N4C(=O)CCC4=O)c3)cc2)n1	-0.0687
C/C(=N/NS(=O)(=O)c1ccc(Br)cc1)c1ccc(NC(=O)c2ccc(C)o2)cc1	-0.763
Cc1nn(-c2ccccc2)c2sc(C(=O)NC3CC3)cc12	-1.46
CC(C)CNS(=O)(=O)c1ccc(CCC(=O)N2CCN(Cc3ccccc3)CC2)cc1	-0.316
CC1CN(C(=S)NC(=O)c2cccc([N+](=O)[O-])c2)CC(C)O1 (stereo unspecified)	0.539
COC(=O)c1cccc(-n2[nH]nnc2=S)c1	0.908
Cc1ccc(NS(=O)(=O)c2ccc3c(c2)c(=O)n(C)c(=O)n3C)cc1F	-0.283
Cc1ccc2[nH]c3c(N4CCN(Cc5ccccc5)CC4)ncnc3c2c1	-0.392
CCN(c1ccccc1)S(=O)(=O)c1ccc(C(=O)Oc2ccc(C(C)=O)cc2)cc1	-0.819
C/C(=N\NC(=O)c1ccccc1-n1cccc1)C1CC1	-0.158
CC(C)(C)C(=O)Nc1ccc(C(=O)Nc2cccnc2)cc1	0.0659
Cc1cc(C)nc(NS(=O)(=O)c2ccc(NC(=S)NC(=O)CC(C)C)cc2)n1	-0.244
CCOc1ccccc1C(=O)n1nc2nc(C)cc(C)c2c1N	-0.941
CCOC(=O)c1sc(NC(=S)n2cc(C)cn2)c(C(=O)OCC)c1C	0.122

From PubChem BioAssay AID488969 (Vanderbilt High Throughput Screening Facility, 2010)
